Measurements reported in PubChem BioAssay AID686978 (National Center for Advancing Translational Sciences (NCATS), 2013).
Screen size: about 420,000 compounds; about 64,000 (15%) were called active. The inconclusive results got no clear call from the source; some entries with a clear call stand among them for comparison. Calls follow the shape of the dose curve; as a rule, active = well fitted inhibition curve with a large enough effect; inconclusive = small, poorly fitted or top-dose-only effect; inactive = flat fitted curve, though single readings scatter. No potency is given beside an inconclusive call; the fits are too rough.

Assay: qHTS for Inhibitors of human tyrosyl-DNA phosphodiesterase 1 (TDP1): qHTS in cells in absence of CPT; also: nearly all actives have a fitted effect of over 55% in size
Conditions: DT40 Tdp1-/- hTDP1 cells, no CPT, ATP luminescence, 48 h; activity change, negative = growth inhibition: at 46.2 µM (top of the series) unless noted
In short: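 DT40 Tdp1-/-;hTDP1 cells, no CPT (DMSO vehicle only), 400 cells/well; compounds pin-transferred; ≥48 hr, 37 °C; CellTiter-Glo 30 min RT dark, luminescence read.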
% is scaled to controls: 0 for no effect and ±100 for the full control effect; potency is read from the fitted curve at half-maximal effect; tags tell the direction and shape of the fitted curve.

SMILES	activity change, negative = growth inhibition	Potency
Cc1ccc(C(=O)[C@@H]2[C@H]3C4COC(O4)C(=O)[C@@H]3[C@H]3C=Cc4ccccc4N32)cc1 (stereo not given in full)	inactive: -18%	–
Cc1cc(OCC(=O)N2CCc3ccccc3C2)c(C)cc1Br	–	active: 16.4 µM
COc1ccc(NS(=O)(=O)c2cccc(C(=O)N3CCN(Cc4cc(OC)ccc4OC)CC3)c2)cc1	–	inconclusive [inhibitor, partial curve, poor fit]
O=C(c1[nH]c(C(F)(F)F)nc1-c1ccccc1)N1CCN(c2c(Cl)cncc2Cl)CC1	–	inconclusive [inhibitor, single point]
CC1(CCc2ccccc2)NC(=O)N(CC(=O)Nc2ccc(OC(F)F)cc2)C1=O (stereo not given)	inactive: 0.402%	–
O=[N+]([O-])c1ccc(CNCc2cc(Cl)ccc2O)cc1	–	inconclusive [inhibitor, single point]
Cc1ccc(C)c(CNC(=O)c2cc3ccccn3n2)c1	–	inconclusive [inhibitor, single point]
CCc1c(O)nc(SCC(=O)Nc2ccccc2)n(-c2ccccc2C)c1=O	inactive: -15.6%	–
CCOC(=O)COc1ccccc1/C=N/Nc1nnc2c3ccccc3n(C)c2n1	–	inconclusive [inhibitor, single point]
COc1ccc(NC(=O)N(CCc2ccccc2)Cc2cc3c(C)cc(C)cc3[nH]c2=O)cc1	–	inconclusive [inhibitor, single point]
COc1ccc2cc(C3(C)NC(=O)N(CC(=O)NCc4ccco4)C3=O)ccc2c1 (stereo not given)	–	inconclusive [inhibitor, single point]
CN(C(=O)CSc1nc(C2CC2)n(-c2ccccc2)n1)C1CCS(=O)(=O)C1 (stereo not given)	inactive: 3.37%	–
CCN1C(=O)C(Cc2nc3ccccc3c(=O)n2-c2ccc(OC)cc2)c2ccccc21 (stereo not given)	–	inconclusive [inhibitor, partial curve]
O=C(O)c1ccc(/C=C2\COc3ccccc3C2=O)cc1	–	active: 18.4 µM
Cn1c(CSc2ncccn2)nnc1SCC(=O)N1CCCC1	inactive: 11.6%	–
COc1ccccc1CNC(=O)c1cnn2c(C(F)F)cc(C)nc12	–	inconclusive [inhibitor, partial curve]
O=C1CC[C@@H]2CC3(C[C@@H]4CCN1[C@H]24)Nc1cc([N+](=O)[O-])ccc1NC3=NC1CCCCC1 (stereo not given in full)	inactive: 1.51%	–
O=C(O)c1ccc(CSc2nnc(-c3ccc(Cl)cc3)o2)cc1	inactive: 2.9%	–
O=C(c1cc(-c2ccncc2)nc2ccccc12)N1CCN(S(=O)(=O)/C=C/c2ccccc2)CC1	–	active: 18.4 µM
O=C(COc1ccc([N+](=O)[O-])cc1)NCC(c1cccs1)N1CCOCC1 (stereo not given)	–	inconclusive [inhibitor, single point]
